In all, about 310,000 compounds went through this assay and about 14,000 (4.5%) showed an effect of 50% or more. The effect is printed as a negative number. The list shows a part of the results.

Consider 88 molecules from article PMC4336329 (PLoS ONE, 2015).
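Also: peak tail current of the secondary pulse compared with the same well before compound.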

human ether-à-go-go-related gene (hERG) potassium channel, sequence (Q12809 whole entry, looked up): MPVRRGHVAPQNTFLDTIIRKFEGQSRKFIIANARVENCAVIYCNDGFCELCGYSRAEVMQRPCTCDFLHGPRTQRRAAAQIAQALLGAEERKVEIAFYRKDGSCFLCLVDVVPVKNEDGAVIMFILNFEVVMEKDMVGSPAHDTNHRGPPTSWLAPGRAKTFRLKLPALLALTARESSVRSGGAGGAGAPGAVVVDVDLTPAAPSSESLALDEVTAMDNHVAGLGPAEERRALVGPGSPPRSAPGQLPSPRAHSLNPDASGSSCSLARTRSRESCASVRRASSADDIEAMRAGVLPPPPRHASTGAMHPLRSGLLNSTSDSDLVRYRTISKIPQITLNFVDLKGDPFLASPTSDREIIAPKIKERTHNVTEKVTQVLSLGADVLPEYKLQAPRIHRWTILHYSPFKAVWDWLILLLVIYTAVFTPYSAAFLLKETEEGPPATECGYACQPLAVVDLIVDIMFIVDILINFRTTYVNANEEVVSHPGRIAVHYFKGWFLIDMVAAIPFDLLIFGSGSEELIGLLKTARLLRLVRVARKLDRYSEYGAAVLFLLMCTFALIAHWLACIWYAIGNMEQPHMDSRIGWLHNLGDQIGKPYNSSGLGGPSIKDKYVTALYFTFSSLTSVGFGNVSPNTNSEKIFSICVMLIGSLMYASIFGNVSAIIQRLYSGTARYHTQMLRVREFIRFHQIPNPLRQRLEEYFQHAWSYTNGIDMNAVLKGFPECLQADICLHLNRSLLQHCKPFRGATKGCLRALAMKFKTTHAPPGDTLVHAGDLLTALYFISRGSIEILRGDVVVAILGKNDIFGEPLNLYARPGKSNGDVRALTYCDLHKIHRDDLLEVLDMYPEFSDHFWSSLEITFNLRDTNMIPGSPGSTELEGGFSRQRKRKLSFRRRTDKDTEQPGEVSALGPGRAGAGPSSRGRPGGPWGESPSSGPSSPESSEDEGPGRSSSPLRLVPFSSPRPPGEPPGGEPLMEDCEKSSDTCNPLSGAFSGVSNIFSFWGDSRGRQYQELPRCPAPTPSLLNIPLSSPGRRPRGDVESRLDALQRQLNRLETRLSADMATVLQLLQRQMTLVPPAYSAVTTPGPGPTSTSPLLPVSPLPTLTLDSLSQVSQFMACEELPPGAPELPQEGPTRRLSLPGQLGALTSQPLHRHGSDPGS

The assay addresses human ether-à-go-go-related gene (hERG) potassium channel (human, UniProt Q12809). Briefly: primary screen, population patch clamp on CHO cells stably expressing hERG.
Consider `CN1CCN(S(=O)(=O)c2cccc(C(=O)N(C)CC(=O)Nc3ccc(F)c(F)c3F)c2)CC1`, for which the “hERG current change (%, negative = inhibition) at 10uM” value was found to be 19.7%. Next, `O=C(O)C1C2CCC(O2)C1C(=O)Nc1ccc(Cl)cc1F` (stereo not shown): 7.83%; `O=C(Cn1ncc2c([nH]c3ccccc32)c1=O)N1CCN(c2ccc(F)cc2)CC1`: 31.1%; `CCC(=O)c1ccc(OCC(=O)c2ccc3c(c2)NC(=O)CO3)cc1`: 3.56%.

Regarding `Cc1cccc(NC(=O)C2CC(=O)NC(Nc3nc4ccccc4s3)=N2)c1` (stereo not shown), the “hERG current change (%, negative = inhibition) at 10uM” value is 12.2%. For `COCc1cc(C)nc(SCc2nc3ccccc3c(=O)[nH]2)c1C#N` the value was -1.85%. As to `Cc1ccc(-n2ccnc2SCC(=O)c2c(N)n(C3CC3)c(=O)[nH]c2=O)cc1C`, the “hERG current change (%, negative = inhibition) at 10uM” value was 15.1%. Next, `CN(C)c1nnnn1-c1ccc(Oc2ncc(C(F)(F)F)cc2Cl)cc1`: -20.1%. For `Cc1ccc(S(=O)(=O)N2CCC(C(=O)Nc3ccc(S(=O)(=O)N4CCCC4)cc3)CC2)cc1` the value was -10.6%. For `CCCCCOc1ccc(NC(=O)CCCC(=O)O)cc1` the value was 1.26%; for `O=C1C=C(O)C(n2cncn2)C(c2cc(F)ccc2F)C1` (stereo not shown), 23.4%. Consider `CCCCC(NC(=O)CCc1c(C)c2cc3c4c(oc3c(C)c2oc1=O)CCCC4)C(=O)O` (stereo not shown), for which the “hERG current change (%, negative = inhibition) at 10uM” value was 8.88%. Next, `COc1ccc(C(=O)NC2CCCCCC2)cc1S(=O)(=O)Nc1ccc(Br)cc1`: -8.4%; `Nc1ccc(C(=O)Nc2ccc3nc(-c4ccncc4)[nH]c3c2)cc1`: 42.6%; `Cc1ccc(S(=O)(=O)NC(=O)NN2CCCCCC2)cc1`: 7.42%. On to `Cn1cnc([N+](=O)[O-])c1Sc1ccc([N+](=O)[O-])cc1`, for which the “hERG current change (%, negative = inhibition) at 10uM” value was -62.1%. For `CCOC(=O)N1CCc2c(sc(NC(=O)Cc3ccccc3)c2C(=O)c2ccc(OC)cc2)C1` the value was 13.7%; for `CCc1cc2c(NCC3CCCO3)ncnc2s1` (stereo not shown), -14.9%; for `COc1ccc(CN(Cc2ccccn2)S(=O)(=O)c2ccc(-n3cnnn3)cc2)cc1`, -72.7%. For `COCc1cc(=O)[nH]c(N2CCN(C(=O)c3ccco3)CC2)n1` the value was 19.8%; for `CCN(C(=O)Cn1cnc2cc([N+](=O)[O-])ccc2c1=O)C1CCS(=O)(=O)C1` (stereo not shown), 1.53%; for `Cc1noc(C(=O)N2CCN(Cc3ccc4c(c3)OCO4)CC2)c1Cl`, -8.33%.

In the case of `COc1nc(N)nc2nc[nH]c12`, the “hERG current change (%, negative = inhibition) at 10uM” value came out at 7.8%. Next, `CC(=O)c1ccc(OCCCC(=O)Nc2cccc(S(=O)(=O)N3CCCCC3)c2)cc1`: -37.3%; `O=C1NCCN(C(=O)CCc2nnc(-c3ccsc3)o2)C1c1ccc(F)cc1` (stereo not shown): -11.8%.

In the case of `O=C1NC[C@@H](Cc2cccc3ccccc23)N(CCc2cc(C(F)(F)F)cc(C(F)(F)F)c2)C1=O`, the “hERG current change (%, negative = inhibition) at 10uM” value was determined as 20.4%. For `CCOc1ccc(NC(=O)C[n+]2ccccc2)cc1.[Cl-]` the value was 6.98%; for `CCOC(=O)c1c(C)nc2ccc(C)cn12`, -0.761%. For `Cc1cc(C)n(C(=O)c2cc3sccc3[nH]2)n1` the value was 1.84%. Next, `C#Cc1ccc([C@H]2C=C(C(=O)N3CCN(Cc4ccccc4)CC3)O[C@@H](OCc3ccc(CO)cc3)C2)cc1`: -13.3%; `Cc1cc(C(=O)COC(=O)CN(C)S(=O)(=O)c2ccc(Cl)cc2)c(C)n1CC1CCCO1` (stereo not shown): -55.2%; `COc1ccc(F)cc1S(=O)(=O)N1CCN(Cc2ccc3c(c2)OCO3)CC1`: -10.7%. For the molecule `COc1ccc(S(=O)(=O)NNC(=O)C2CC(c3cccnc3)=NO2)cc1` (stereo not shown), the “hERG current change (%, negative = inhibition) at 10uM” value was found to be 26.6%. For `Cc1cc(C(=O)Nc2ccccc2Cc2ccccc2)no1` the value was -9.09%; for `CCCC(C(=O)OCCN(CC)CC)(c1ccccc1)c1ccccc1.Cl`, -53.9%. Next, `COc1ccc(-c2c(C3=CCCCC3)oc3ccc(-c4ccc5c(c4)OCO5)cc23)cn1`: 12.8%.

With `NC(=O)c1ccc(-n2nnnc2SCc2ccccc2)cc1`, the “hERG current change (%, negative = inhibition) at 10uM” value stood at 8.34%. Next, `N/C(Cc1ccc([N+](=O)[O-])cc1)=N\OC(=O)COc1ccccc1Cl`: -21.2%; `Cn1c2ccccc2c2cc(C(=O)OCC(=O)N3CC(=O)Nc4ccccc43)sc21`: 6.25%; `COc1ccc(Oc2cc(NN3CCCCC3)c([N+](=O)[O-])cc2[N+](=O)[O-])cc1OC`: -6.43%. Next, `COc1ccc(-c2cnn(C3CCS(=O)(=O)C3)c2N)cc1` (stereo not shown): 10.1%; `COc1ccccc1CC(NC(C)=O)C(=O)NC1CCN(C(=O)Nc2ccccc2F)CC1` (stereo not shown): 28.3%. Next, `CC(C)Oc1snc(Cl)c1C(N)=O`: 12%; `COc1ccc(N2CCN(C(=O)CSc3ncnc4scc(-c5ccc(C)cc5)c34)CC2)cc1`: -0.0765%; `CCOc1cc(-c2nc(C)c(C(C)=O)n2O)ccc1OCC(=O)Nc1ccc(F)cc1`: -0.582%. For the molecule `O=S(=O)(CCc1nc2ccccc2o1)c1ccc(Cl)cc1`, the “hERG current change (%, negative = inhibition) at 10uM” value is -7.14%. For `O=c1ccn(Cc2ccccc2)c(=O)n1Cc1ccccc1` the value was -7.89%. Next, `CCOC(=O)C1=C(N)N(c2ccccc2Oc2ccccc2)C(=O)C1`: 11.8%. Next, `Cc1ccc2cc(CCNC(=O)c3ccc4c(c3)OCO4)c(=O)[nH]c2c1C`: 4.17%.

As to `CC(=O)NS(=O)(=O)c1ccc(NC(=O)c2cc(-c3cccs3)nc3ccccc23)cc1`, the “hERG current change (%, negative = inhibition) at 10uM” value was found to be 16.2%. For `Cc1ccc(NC(=O)CCCC(=O)OC(C)C(=O)c2ccccc2)cc1` (stereo not shown) the value was 2.74%; for `CC(C)(C)C(=O)CSc1nc(N)cc(=O)[nH]1`, 15.2%; for `O=C1C2C3C=CC(CC3)C2C(=O)N1c1nccs1` (stereo not shown), 0.689%. Consider `NC(=O)c1ccnc2c(O)cccc12.O=C(O)C(F)(F)F`, for which the “hERG current change (%, negative = inhibition) at 10uM” value worked out at 1.46%. For `Cc1nn(Cc2ccc(C(=O)NN)cc2)c(C)c1Cl` the value was 7.14%; for `CC(C)CC(CCc1ccccc1)OS(N)(=O)=O` (stereo not shown), 5.18%.

Regarding `COc1ccc(Cc2nnc(SCC(=O)N3CCc4ccccc4C3)o2)cc1`, the “hERG current change (%, negative = inhibition) at 10uM” value is recorded as -14.2%. Next, `CCn1c(=S)[nH]c2nc3c(cc2c1=O)CCCC3`: 7.57%. Next, `CCCCOc1ccc(C(=O)Nc2ccc(OCC(=O)N3CCOCC3)cc2)cc1`: 20.9%; `CCOCCCNC(=S)N1CCC(NC(=O)c2ccco2)CC1`: -9.7%; `CC(=O)Nc1ccc(S(=O)(=O)Nc2ncccn2)cc1`: -3.24%. As for `c1ccn2c(Cc3nnc4ccccn34)nnc2c1`, the “hERG current change (%, negative = inhibition) at 10uM” value is recorded as -0.74%.

Turning to `COc1ccc2c(c1)C(=O)N(c1ccccc1)C(=O)C2`, the “hERG current change (%, negative = inhibition) at 10uM” value is reported as 8.85%. Next, `COc1ccc(C2=CC(=O)C[C@H](c3ccc4c(c3)OCO4)C2)cn1`: 5.43%; `Cc1cccc(OCc2nnc(SCC(=O)O)n2Cc2ccccc2)c1`: 28.1%; `O=[N+]([O-])c1ccc(/C=C/c2nc3ccc([N+](=O)[O-])cc3[nH]2)cc1`: -23.1%. Next, `O=c1c(CN2CCN(Cc3ccccc3F)C(CCO)C2)coc2ccccc12` (stereo not shown): -3.11%; `O=C(NNC(=O)C1CCC(C(=O)NNC(=O)c2cccs2)CC1)c1cccs1` (stereo not shown): 7.92%. Next, `CSc1nc(Oc2ccc(=O)n(C)n2)nc(N(C)C)n1`: 9.21%; `COc1ccccc1-c1cc(C(=O)N/N=C\c2cnn(C)c2C)c2ccccc2n1`: -3.85%; `COc1ccc(NC(C)=O)cc1NC(C)C(=O)Nc1cccc2ccccc12` (stereo not shown): 6.32%. For `CC1COC(c2cccn2Cc2ccccc2Cl)=N1` (stereo not shown), the “hERG current change (%, negative = inhibition) at 10uM” value was 3.84%. Next, `Cc1c(C(=O)N2CCCc3ccccc32)sc2nc(-c3ccccc3)cn12`: -3.24%.

In the case of `Brc1ccc(OCc2nnnn2-c2ccccc2)cc1`, the “hERG current change (%, negative = inhibition) at 10uM” value is on record as 11.3%.

As to `COc1cc(C)ccc1OCc1cc(C(=O)NCCN2CCOCC2)no1`, the “hERG current change (%, negative = inhibition) at 10uM” value is reported as 2.08%.

In the case of `CSCCC(NC(=O)COc1ccccc1)C(=O)N(C)Cc1ccc(Cl)cc1Cl` (stereo not shown), the “hERG current change (%, negative = inhibition) at 10uM” value is listed as -24.5%.

With `COc1ccc(CCNC(=O)Cn2cnc3c(cnn3-c3ccccc3Cl)c2=O)cc1OC`, the “hERG current change (%, negative = inhibition) at 10uM” value is reported as -1.24%.

Regarding `C=CCNC(=S)NCCCCC1NC(=S)N(CC=C)C1=O` (stereo not shown), the “hERG current change (%, negative = inhibition) at 10uM” value was found to be 13.2%.

In the case of `O=C(COc1ccccc1)Nc1ccc(C(=O)N2CCCC2)cc1`, the “hERG current change (%, negative = inhibition) at 10uM” value is 8.44%.

Consider `CC(C)(Oc1ccc(Cl)cc1)C(=O)N1CCN(c2ccccn2)CC1`, for which the “hERG current change (%, negative = inhibition) at 10uM” value is given as -32%. For `O=C(c1ccccc1)N1N=C(c2ccccc2)CC1c1ccc2nccnc2c1` (stereo not shown) the value was -28.7%. Next, `O=C1CS/C(=N/N=C2CCCC2)N1`: 9.21%. Next, `Cc1ccc(N2CN(CCC3=CCCCC3)CNC2=S)cc1`: 18%.

Regarding `O=C(NCCCNC1CCCCC1)c1ccc(/C=N/O)nc1`, the “hERG current change (%, negative = inhibition) at 10uM” value is -10.9%. Next, `CCOC(=O)Oc1ccc2oc(C)c(C(=O)OCCOC)c2c1`: -7.01%; `COc1ccc(OC)c(CNC(=O)CCn2c(=O)c3cccn3c3ccc(F)cc32)c1`: -62.2%; `CCOC(=O)C(=N/O)/C(C)=N/NC(=O)C(=O)Nc1ccc(Cl)cc1`: -4%. With `O=C(NCc1cccnc1)Nc1ccc([N+](=O)[O-])cc1`, the “hERG current change (%, negative = inhibition) at 10uM” value was determined as 4.63%.
